{
  "source": "paper PMC9399069",
  "about": "“Imaging PARP with [^18F]rucaparib in pancreatic cancer models” (European Journal of Nuclear Medicine and Molecular Imaging, 2022)",
  "system": "PSN1 xenografts",
  "assay": "Ex vivo biodistribution of [18F]rucaparib in PSN1 tumour-bearing mice",
  "set-up": "species or system Balb/c nu/nu mice",
  "experimental": "Female Balb/c nu/nu (OlaHsd-Foxn1^nu) mice, aged 4–6 weeks, were purchased from Envigo (UK). Animals were housed in IVC cages, up to 6 per cage, in an artificial day–night cycle facility. Food and water were provided ad libitum.\nPSN1 cells were harvested using trypsin, washed twice with PBS and reconstituted in PBS:Matrigel® Matrix High Concentration (1:1). Cell suspensions (PSN1: 2 × 10^6 cells/ 100 μL) were injected subcutaneously in the lower right flank.\nAnimals were administered [^18F]rucaparib (0.87–11.38 MBq in 100 μL of PBS, Am = 1.5–30.9 GBq/μmol) by intravenous injection via the lateral tail vein. To evaluate the selectivity of tumour uptake, an excess of unlabelled rucaparib or olaparib (0.5 mg) was co-administered as a blocking agent in some animals. Dynamic PET images (1 h) were acquired using a MILabs VECTor^4 camera, equipped with an ultra-high resolution rat/mouse collimator (1.8 mm), followed by a cone-beam CT scan (55 kV, 0.19 mA) for anatomical reference and attenuation correction. Animal was anesthetised by 4% isoflurane gas (0.5 L/min O2) and maintained at 2.5% at 37 °C throughout the duration of image acquisition. PET images were reconstructed using U-SPECT-Rec3.22 software (MILabs, Utrecht, The Netherlands), applying a pixel-based algorithm, ordered subset expectation maximisation (OSEM) with 6 subsets, 4 iterations and 0.8 mm voxel size for fluorine-18 (energy window settings 477.9–584.1 keV). Reconstructed PET and CT images were viewed and analysed using PMOD v.3.37 (PMOD Technologies, Zurich, Switzerland).\nEither 1 h or 2 h after radiolabelled compound injection, animals were euthanised. Selected organs, tissues and blood were removed, and the percentage of the injected dose per gram of tissue (%ID/g) was determined, using a HIDEX automated gamma counter.",
  "key": {"[1]": {"conditions": "1 h post-injection, i.v., individual animals (n=3)"}, "[2]": {"conditions": "2 h after i.v. injection, non-treated (no blocking agent), individual animals (n=3)"}, "[3]": {"conditions": "2 h after i.v. injection, olaparib-blocked (co-injection of olaparib 0.5 mg), individual animals (n=3)"}, "[4]": {"conditions": "2 h after i.v. injection, rucaparib-blocked (co-injection of rucaparib 0.5 mg), individual animals (n=3)"}, "[5]": {"conditions": "2 h post-injection, i.v., individual animals (n=6)"}},
  "note": "Where “and” joins values, the source holds several entries; their conditions need not be identical. Identical values can stand only once. This continues a long series; more values of the same kind are listed elsewhere.",
  "data": [
    {"smiles": "CNCc1ccc(-c2[nH]c3cc([18F])cc4c3c2CCNC4=O)cc1", "note": "[[^18F]rucaparib]", "values": [
      {"measurement": "Ex vivo biodistribution, Liver", "setting": "[1]", "result": "4.24 %ID/g and 22.33 %ID/g"},
      {"measurement": "Ex vivo biodistribution, Spleen", "setting": "[1]", "result": "32.86 %ID/g and 41.87 %ID/g and 47.79 %ID/g"},
      {"measurement": "Ex vivo biodistribution, Stomach", "setting": "[1]", "result": "9.10 %ID/g and 6.86 %ID/g and 7.46 %ID/g"},
      {"measurement": "Ex vivo biodistribution, Blood", "setting": "[2]", "result": "0.92 %ID/g and 0.49 %ID/g and 0.48 %ID/g"},
      {"measurement": "Ex vivo biodistribution, Bone", "setting": "[2]", "result": "3.49 %ID/g and 2.71 %ID/g and 2.38 %ID/g"},
      {"measurement": "Ex vivo biodistribution, Brain", "setting": "[2]", "result": "0.09 %ID/g and 0.06 %ID/g (2×)"},
      {"measurement": "Ex vivo biodistribution, Fat", "setting": "[2]", "result": "1.32 %ID/g and 0.74 %ID/g and 0.84 %ID/g"},
      {"measurement": "Ex vivo biodistribution, Heart", "setting": "[2]", "result": "2.44 %ID/g and 2.15 %ID/g and 1.73 %ID/g"},
      {"measurement": "Ex vivo biodistribution, Kidney", "setting": "[2]", "result": "7.28 %ID/g and 6.56 %ID/g and 5.54 %ID/g"},
      {"measurement": "Ex vivo biodistribution, Large intestine", "setting": "[2]", "result": "23.81 %ID/g and 19.26 %ID/g and 15.83 %ID/g"},
      {"measurement": "Ex vivo biodistribution, Liver", "setting": "[2]", "result": "12.22 %ID/g and 8.90 %ID/g and 10.25 %ID/g"},
      {"measurement": "Ex vivo biodistribution, Lung", "setting": "[2]", "result": "8.77 %ID/g and 6.24 %ID/g and 4.58 %ID/g"},
      {"measurement": "Ex vivo biodistribution, Muscle", "setting": "[2]", "result": "2.51 %ID/g and 1.58 %ID/g and 1.90 %ID/g"},
      {"measurement": "Ex vivo biodistribution, Pancreas", "setting": "[2]", "result": "13.99 %ID/g and 9.45 %ID/g and 9.78 %ID/g"},
      {"measurement": "Ex vivo biodistribution, Small intestine", "setting": "[2]", "result": "16.44 %ID/g and 9.50 %ID/g and 19.42 %ID/g"},
      {"measurement": "Ex vivo biodistribution, Spleen", "setting": "[2]", "result": "32.75 %ID/g and 20.87 %ID/g and 15.30 %ID/g"},
      {"measurement": "Ex vivo biodistribution, Stomach", "setting": "[2]", "result": "4.66 %ID/g and 5.94 %ID/g and 7.68 %ID/g"},
      {"measurement": "Ex vivo biodistribution, Tumour", "setting": "[2]", "result": "2.58 %ID/g and 2.10 %ID/g and 1.74 %ID/g"},
      {"measurement": "Ex vivo biodistribution, Blood", "setting": "[3]", "result": "0.62 %ID/g and 0.49 %ID/g and 0.38 %ID/g"},
      {"measurement": "Ex vivo biodistribution, Bone", "setting": "[3]", "result": "1.34 %ID/g and 1.17 %ID/g and 1.13 %ID/g"},
      {"measurement": "Ex vivo biodistribution, Brain", "setting": "[3]", "result": "0.06 %ID/g (2×) and 0.04 %ID/g"},
      {"measurement": "Ex vivo biodistribution, Fat", "setting": "[3]", "result": "0.73 %ID/g and 0.74 %ID/g and 0.75 %ID/g"},
      {"measurement": "Ex vivo biodistribution, Heart", "setting": "[3]", "result": "1.07 %ID/g and 0.82 %ID/g and 0.83 %ID/g"},
      {"measurement": "Ex vivo biodistribution, Kidney", "setting": "[3]", "result": "5.09 %ID/g and 3.73 %ID/g and 3.29 %ID/g"},
      {"measurement": "Ex vivo biodistribution, Large intestine", "setting": "[3]", "result": "33.55 %ID/g and 35.89 %ID/g and 30.25 %ID/g"},
      {"measurement": "Ex vivo biodistribution, Liver", "setting": "[3]", "result": "13.15 %ID/g and 9.74 %ID/g and 9.86 %ID/g"},
      {"measurement": "Ex vivo biodistribution, Lung", "setting": "[3]", "result": "5.83 %ID/g and 5.49 %ID/g and 6.59 %ID/g"},
      {"measurement": "Ex vivo biodistribution, Muscle", "setting": "[3]", "result": "1.19 %ID/g and 1.07 %ID/g and 1.10 %ID/g"},
      {"measurement": "Ex vivo biodistribution, Pancreas", "setting": "[3]", "result": "4.67 %ID/g and 4.17 %ID/g and 4.43 %ID/g"},
      {"measurement": "Ex vivo biodistribution, Small intestine", "setting": "[3]", "result": "8.33 %ID/g and 9.66 %ID/g and 6.32 %ID/g"},
      {"measurement": "Ex vivo biodistribution, Spleen", "setting": "[3]", "result": "3.05 %ID/g and 3.03 %ID/g and 2.63 %ID/g"},
      {"measurement": "Ex vivo biodistribution, Stomach", "setting": "[3]", "result": "12.09 %ID/g and 9.73 %ID/g and 6.47 %ID/g"},
      {"measurement": "Ex vivo biodistribution, Tumour", "setting": "[3]", "result": "2.83 %ID/g and 1.36 %ID/g and 1.23 %ID/g"},
      {"measurement": "Ex vivo biodistribution, Blood", "setting": "[4]", "result": "0.04 %ID/g and 0.29 %ID/g and 0.36 %ID/g"},
      {"measurement": "Ex vivo biodistribution, Bone", "setting": "[4]", "result": "0.10 %ID/g and 1.21 %ID/g and 0.90 %ID/g"},
      {"measurement": "Ex vivo biodistribution, Brain", "setting": "[4]", "result": 0.06, "unit": "%ID/g"},
      {"measurement": "Ex vivo biodistribution, Fat", "setting": "[4]", "result": "0.04 %ID/g and 0.41 %ID/g and 0.31 %ID/g"},
      {"measurement": "Ex vivo biodistribution, Heart", "setting": "[4]", "result": "0.06 %ID/g and 0.76 %ID/g and 0.51 %ID/g"},
      {"measurement": "Ex vivo biodistribution, Kidney", "setting": "[4]", "result": "0.24 %ID/g and 2.32 %ID/g and 2.51 %ID/g"},
      {"measurement": "Ex vivo biodistribution, Large intestine", "setting": "[4]", "result": "3.24 %ID/g and 45.68 %ID/g and 25.75 %ID/g"},
      {"measurement": "Ex vivo biodistribution, Liver", "setting": "[4]", "result": "0.62 %ID/g and 5.66 %ID/g and 7.42 %ID/g"},
      {"measurement": "Ex vivo biodistribution, Lung", "setting": "[4]", "result": "0.35 %ID/g and 4.77 %ID/g and 2.50 %ID/g"},
      {"measurement": "Ex vivo biodistribution, Muscle", "setting": "[4]", "result": "0.10 %ID/g and 1.36 %ID/g and 0.74 %ID/g"},
      {"measurement": "Ex vivo biodistribution, Pancreas", "setting": "[4]", "result": "0.31 %ID/g and 3.02 %ID/g and 2.76 %ID/g"},
      {"measurement": "Ex vivo biodistribution, Small intestine", "setting": "[4]", "result": "0.56 %ID/g and 11.02 %ID/g and 5.09 %ID/g"},
      {"measurement": "Ex vivo biodistribution, Spleen", "setting": "[4]", "result": "0.19 %ID/g and 1.85 %ID/g (2×)"},
      {"measurement": "Ex vivo biodistribution, Stomach", "setting": "[4]", "result": "0.53 %ID/g and 6.53 %ID/g and 4.49 %ID/g"},
      {"measurement": "Ex vivo biodistribution, Tumour", "setting": "[4]", "result": "0.11 %ID/g and 1.20 %ID/g and 1.12 %ID/g"},
      {"measurement": "Ex vivo biodistribution, Liver", "setting": "[5]", "result": "12.22 %ID/g and 8.90 %ID/g and 10.25 %ID/g and 12.44 %ID/g and 11.01 %ID/g and 11.46 %ID/g"},
      {"measurement": "Ex vivo biodistribution, Lung", "setting": "[5]", "result": 8.24, "unit": "%ID/g"},
      {"measurement": "Ex vivo biodistribution, Spleen", "setting": "[5]", "result": "32.75 %ID/g and 20.87 %ID/g and 15.30 %ID/g and 23.45 %ID/g and 16.14 %ID/g and 14.89 %ID/g"},
      {"measurement": "Ex vivo biodistribution, Stomach", "setting": "[5]", "result": "4.66 %ID/g and 5.94 %ID/g and 7.68 %ID/g and 11.59 %ID/g and 5.59 %ID/g and 7.44 %ID/g"}
    ]}
  ]
}
